Source: ChEMBL document CHEMBL4888484, “Replenishing the malaria drug discovery pipeline: Screening and hit evaluation of the MMV Hit Generation Library 1 (HGL1) against asexual blood stage Plasmodium falciparum ,using a nano luciferase reporter read-out” (2022)
Screen size: about 150,000 compounds; about 540 (0.36%) showed an effect of 50% or more. This is one part of the list.

Each compound was assayed on Plasmodium falciparum (assay: Primary screen in NF54 nanoGlo assay, in single point, at 2uM, 72h; a lower Z score goes with more inhibition). Settings: timepoint 72 hour.
Format: functional, Erythrocyte

SMILES | % Inhibition | Z score
Cc1cc(C2OCCO2)c(C)cc1CN1CCC[C@@H]1CO | 0% | -0.06
Cn1nccc1-c1ccccc1CN1CCC(C)(C)S(=O)(=O)CC1 | -1% | 0.14
COc1ncnc(N)c1CNCC1(Cc2ccccc2)CC1 | -4% | 0.79
CCN(CC(O)COC)CC1CC(c2ccc(Cl)cc2)=NO1 (stereo unspecified) | 1% | -0.14
CN(Cc1ccccc1)C(=O)c1ccc(CS(=O)(=O)Cc2ccc(Cl)cc2)o1 | -6% | 0.84
OCCn1nc(C2(c3ccccc3)CC2)nc1Cc1ccc(F)cc1Cl | 11% | -1.52
CO[C@H](C(=O)NCc1c(C(=O)O)sc2ccccc12)C1CC1 | 9% | -1.53
CCCOc1ccccc1CNC(C)(C)C | 4% | -0.8
CCCCCN(C)S(=O)(=O)[C@H]1CCS(=O)(=O)C1 | -15% | 1.75
Cc1nc(-c2ccc(NC(=O)[C@@H](F)C(F)(F)F)cc2)[nH]c1C | 22% | -2.9
Cc1ccc(S(=O)(=O)N2CCN(C(=O)N3CCOCC3)C2)cc1 | -6% | 0.91
Cc1cc(NCCCN2CCOCC2)nc(N)n1 | -9% | 1.73
Cc1oc(-c2ccccc2)nc1CNC1(C(=O)O)CCCC1 | -11% | 1.31
CCOc1ncccc1CNC(=O)N1CCOC[C@@H]1CC(C)C | -3% | 0.66
CCCc1[nH]nc(-c2ccc(C(F)(F)F)cc2)c1NC(=O)C1CCC1 | -6% | 1.04
O=C(c1cccc(S(=O)(=O)NCc2cc[nH]n2)c1)N1C[C@H]2CCC[C@@H]1C2 | 2% | -0.29
O=S1(=O)[C@H](c2ccccc2)CCN1Cc1ccc(C(F)(F)F)cn1 | -6% | 0.99
CC[C@H](Oc1ccccc1F)C(=O)NCC1(N2CCN(C)CC2)CCCCC1 | -2% | 0.27
CN(C)c1cc(F)cc(N2C(=O)CNC2=O)c1 | 1% | -0.08
CN1C(=O)NCC12CCN(C(=O)Nc1cccc3ccsc13)CC2 | -14% | 1.91
CCC[C@H]1CN(C(=O)c2cc(=O)[nH]c3cc(F)ccc23)C[C@@H]1N | -9% | 1.79
O[C@@H](CNC1CC(c2ccc(Cl)cc2)C1)c1ccco1 (stereo partly specified) | 10% | -1.05

SMILES | % Inhibition | Z score
CCCc1noc(CN2C[C@@H](C(N)=O)c3ccccc32)n1 | -15% | 1.3
CCN1C[C@H](CN(C)C(=O)c2cnccn2)Oc2ccccc21 | -9% | 1.37
CC1(C(=O)N2CCC[C@@]3(CCS(=O)(=O)C3)C2)COC1 | -25% | 2.66
CCc1nc(Cn2nc(-c3ccccc3)ccc2=O)no1 | -11% | 1.59
COc1ccc([C@H]2CC(=O)Nc3c2cnn3Cc2ccco2)c(OC)c1 | 17% | -2.17
COc1cccc(Cc2nc(-c3ccc(S(=O)(=O)N4CCOCC4)cc3)no2)c1 | -1% | 0.21
O=C(Nc1cnc(N2CCCCCC2)nc1)c1ccccc1Br | -24% | 2.14
COC(=O)C1(CNC(=O)c2cc(F)ccc2O)CCOCC1 | -4% | 0.71
CC1(C)Nc2ccccc2-c2nnnn21 | -10% | 1.32
CO[C@@H](CS(=O)(=O)Nc1ccc(C(=O)O)cc1F)C1CCCC1 | 3% | -0.31
CC(C)c1nc(CN2C(=O)N[C@@](C)(c3cnn(C)c3)C2=O)no1 | 2% | -0.3
O=C(c1ccsc1)N1CCc2n[nH]c(=O)n2CC1 | 7% | -1.32
CC(NS(C)(=O)=O)c1nc(C(C)C2CC2)no1 (stereo unspecified) | 2% | -0.4
Cc1cc([C@@H]2CCCN2S(=O)(=O)c2cc(F)c(F)cc2F)on1 | 4% | -0.68
O=C(OCCNc1ncccn1)c1nccc2ccccc12 | -6% | 0.65
O=S(=O)(N1CCCCC1)N1CCO[C@H](c2ccc(F)cc2)C1 | -3% | 0.56
CCCc1nc(C(=O)N(CCO)Cc2nccs2)cs1 | -4% | 0.63
O=C1CC(C2CCCCN2C(=O)NCCC2CC3CCC2C3)CN1 (stereo unspecified) | 26% | -2.98
C[C@@H](CN1CCCCCC1)NCCc1nccs1 | -6% | 1.07
Cc1nn(-c2ccc(C(C)(C)C)cc2)c(C)c1[C@@H]1C=C[C@@H](NC(=O)NCc2ccccc2)C1 | 30% | -3.34
OCc1ccnc(N2CCC[C@@]3(C=Cc4ccccc4O3)C2)n1 | -6% | 0.83
O=C(C#Cc1ccccc1)NCc1ccccc1OCCO | 3% | -0.45

SMILES | % Inhibition | Z score
O=C1CN(C2CCCC2)C(=O)N1Cc1ncc(Cl)cc1Cl | 0% | -0.07
CC[C@@H](CO)NC(=O)C(=O)Nc1c(C)cccc1C | -8% | 1.23
CCOc1ccc(-c2ccnc3nc(N4CCOCC4)[nH]c(=O)c23)cc1 | -4% | 0.52
Cc1cccnc1NC(=O)OC(C)(C)C | 33% | -0.97
CC(C)[C@H](NS(=O)(=O)c1cccnc1)c1nccn1C | -8% | 0.92
NC(=O)[C@H]1CCCN(Cc2cnc3c(-c4ccccc4)cnn3c2)C1 | 0% | -0.06
Cn1nnc2c1CC(C(=O)NCC1CCCCC1NS(C)(=O)=O)CC2 (stereo unspecified) | -2% | 0.4
C1CCC(Nc2nc3nonc3nc2N2CCCCC2)CC1 | 32% | -4.14
CCn1ncnc1CNC(=O)c1c(C)coc1C | -5% | 0.84
Cc1nc(CN(Cc2nccn2C)C2CC2)no1 | -6% | 1.16
Cc1ccc(N[C@@](C)(C(=O)N(C)Cc2nccn2C)c2ccccc2)cc1 | 1% | -0.23
O=C(O)Cn1nccc1[C@H]1CCCN(Cc2ccc3nsnc3c2)C1 | -10% | 1.36
CCCc1nc(Cc2ccc(OC)c(OC)c2)no1 | -5% | 0.72
CC(C)c1nc(CN2CCC[C@H]2c2nc(-c3ccccc3)n[nH]2)no1 | -13% | 2.06
CON1C(=O)C(=O)N(OC)C(C)(C)[C@@H]1C | 3% | -0.65
Cc1nc(C)c(C)c(NCC(C)(C)N2CCCC2)n1 | -1% | 0.13
O=C(NC1CCN(CCO)CC1)N1CCCC[C@@H]1CCc1ccccc1 | 6% | -0.83
C[C@H]1c2ccsc2CCN1C(=O)c1cc(C2CC2)[nH]n1 | -11% | 0.97
Nc1ccc(N2CCN(c3ncccn3)CC2)cn1 | -14% | 1.92
COc1cc(N2CCC(c3nnc(CN4CCCC4)n3C)CC2)ncn1 | -9% | 1.11
O=C(c1ccc(Oc2nccs2)cc1)N1Cc2cncnc2C1 | -4% | 0.82
CN([C@H]1CC[C@@H](C(F)(F)F)CC1)S(=O)(=O)c1ccsc1 | -14% | 2.28

SMILES | % Inhibition | Z score
O=S(=O)(NCC1(c2ccccn2)CCC1)C1CCCCC1 | -7% | 1.04
CC(=O)N1CCCC1C1CCCN1C(C)c1nc(-c2ccc(Cl)cc2)no1 (stereo unspecified) | -7% | 0.76
Cc1ccccc1C(=O)NCc1ccnc(-c2cccnc2)c1 | -1% | 0.11
Cc1nc(-c2cccc(C(=O)N3CC=C[C@@H]3C(C)C)c2)c2ccccc2n1 | -6% | 1.21
CCn1ncc(NC(=O)Cn2cc(-c3nccc(OC)n3)cn2)n1 | -7% | 1.03
Cn1cccc1CN(C(=O)c1ccno1)C1CC1 | 1% | -0.15
Cc1nc(O)nc(O)c1CN1CCOCC1 | -10% | 1.65
CC(C)n1cccc1C(=O)NCCCc1nnn[nH]1 | -1% | 0.22
Cc1nc(N[C@@H](C)c2ccncc2)c2c(C)csc2n1 | 1% | -0.1
CC(=O)N1CCN(C(=O)c2ccc(COc3ccc4c(c3)[C@H](c3ccccc3)N(C(=O)C(C)C)CC4)o2)CC1 | -2% | 0.38
COc1ccc(CCN2CCC[C@]3(C2)C(=O)N(C)C(=O)N3C)cc1 | -13% | 1.71
COC[C@H]1CCN(Cc2nc(CCc3ccccc3)no2)C1 | 12% | -1.65
Cc1ccc(-c2nc(=O)c(CCC(=O)NCCCN3CCOCC3)n[nH]2)cc1Cl | -8% | 0.9
COc1cc(Cl)c(C)cc1NC(=O)CCNc1ncccc1C#N | -2% | 0.38
NC(=O)c1ccsc1NC(=O)CN1CCCC2CCCCC21 (stereo unspecified) | -7% | 1.43
O=C(NCc1ccccc1)[C@H]1CC(=O)N(c2ccc(OCC(=O)N3CCCC3)cc2)C1 | 22% | -2.51
O[C@H]1[C@@H]2CC[C@H]1CN(C/C=C/c1ccc(F)cc1)C2 | -7% | 0.87
Cn1cc(C(=O)N2CC[C@@]3(CCCN(CC4CC4)C3=O)C2)ccc1=O | -13% | 2.08
Cc1nc2c(c(N(C)Cc3csc(C(C)C)n3)n1)CNC2 | -8% | 1.15
CCn1ccnc1CN(C)C(=O)NCCc1nc(C)c2c(n1)CCC2 | 5% | -0.71
c1coc(CNc2nc(C3CCCC3)nc3c2CCOCC3)c1 | -4% | 0.58
Cc1csc([C@H](C)N(C)C(=O)c2cnc(C3CC3)nc2)n1 | 2% | -0.3
